The other results are listed elsewhere or left out. Single values are uncertain, as repeats are few or missing.
System: WM3619
Test: cell count relative to DMSO control; melanoma cells; higher = more viable cells
Conditions: library dose: low library concentration; 72 h
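Also: cell number obtained by counting DAPI-stained nuclei in high-throughput microscope images with image analysis software, screen run in 1,536-well plates.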

Compound | cell count
COc1cc([C@@H]2c3cc4c(cc3[C@@H](O[C@@H]3O[C@@H]5CO[C@@H](C)O[C@H]5[C@H](O)[C@H]3O)[C@H]3COC(=O)[C@H]23)OCO4)cc(OC)c1O [etoposide] + Cn1cc(C2=C(c3cn(C4CCN(Cc5ccccn5)CC4)c4ccccc34)C(=O)NC2=O)c2ccccc21 [Enzastaurin] (first compound 0.02 µM, partner dose 0.8 µM) | 101%
O=C(Nc1cccc(Cl)c1)Nc1ncc(CCNc2ncnc3ccsc23)s1 + C/C(O)=C(\C#N)C(=O)Nc1cc(Br)ccc1Br [LFM-A13] (first compound 0.0008 µM, partner dose 2 µM) | 84.6%
CCN(CC)CCNC(=O)c1c(C)[nH]c(/C=C2\C(=O)Nc3ccc(F)cc32)c1C [sunitinib] + Cc1cc(SCc2sc(-c3ccc(C(F)(F)F)c(F)c3)nc2C)ccc1OCC(=O)O [GW0742] (first compound 0.4 µM, partner dose 2 µM) | 126%
O=C(Oc1ccc([N+](=O)[O-])cc1)N1CCC(C(O)(c2ccc3c(c2)OCO3)c2ccc3c(c2)OCO3)CC1 + CC(C)CCN1c2nc(Nc3cc(F)c(O)c(F)c3)ncc2N(C)C(=O)C1C [BID1870] (first compound 1 µM, partner dose 0.2 µM) | 118%
NC1(c2ccc(-c3nc4ccn5c(=O)[nH]nc5c4cc3-c3ccccc3)cc2)CCC1 + N.N.[Cl][Pt][Cl] [cisplatin] (first compound 0.4 µM, partner dose 1.6 µM) | 96.7%
Cc1cc(SCc2sc(-c3ccc(C(F)(F)F)c(F)c3)nc2C)ccc1OCC(=O)O + O=c1cc(-c2cccc3c2Sc2ccccc2S3)oc(N2CCOCC2)c1 [KU55933] (first compound 2 µM, partner dose 1 µM) | 92.8%
Cc1cc(SCc2sc(-c3ccc(C(F)(F)F)c(F)c3)nc2C)ccc1OCC(=O)O + O=C(Oc1ccc([N+](=O)[O-])cc1)N1CCC(C(O)(c2ccc3c(c2)OCO3)c2ccc3c(c2)OCO3)CC1 [JZL184] (first compound 2 µM, partner dose 1 µM) | 104%
O=C(Nc1cc(C(F)(F)F)cc(C(F)(F)F)c1)c1cc(Cl)ccc1O + C[C@]12O[C@H](C[C@]1(O)CO)n1c3ccccc3c3c4c(c5c6ccccc6n2c5c31)CNC4=O [Lestaurtinib] (first compound 0.016 µM, partner dose 0.004 µM) | 101%
CCCCCCCCc1ccc(CCC(N)(CO)CO)cc1 [fingolimod] + N.N.[Cl][Pt][Cl] [cisplatin] (first compound 2 µM, partner dose 1.6 µM) | 73.8%
O=S(=O)(c1ccccc1)N(CC(F)(F)F)c1ccc(C(O)(C(F)(F)F)C(F)(F)F)cc1 + O=C(Oc1ccc([N+](=O)[O-])cc1)N1CCC(C(O)(c2ccc3c(c2)OCO3)c2ccc3c(c2)OCO3)CC1 [JZL184] (first compound 1.4 µM, partner dose 1 µM) | 110%
O=C(/C=C/c1cccnc1)NCCCCC1CCN(C(=O)c2ccccc2)CC1 + O=C(Oc1ccc([N+](=O)[O-])cc1)N1CCC(C(O)(c2ccc3c(c2)OCO3)c2ccc3c(c2)OCO3)CC1 [JZL184] (first compound 0.01 µM, partner dose 1 µM) | 99%
NC1(c2ccc(-c3nc4ccn5c(=O)[nH]nc5c4cc3-c3ccccc3)cc2)CCC1 + Cc1cc(SCc2sc(-c3ccc(C(F)(F)F)c(F)c3)nc2C)ccc1OCC(=O)O [GW0742] (first compound 0.4 µM, partner dose 2 µM) | 88.7%
NC1(c2ccc(-c3nc4ccn5c(=O)[nH]nc5c4cc3-c3ccccc3)cc2)CCC1 + C[As](C)SC[C@H](NC(=O)CC[C@H](N)C(=O)O)C(=O)NCC(=O)O [Darinaparsin] (first compound 0.4 µM, partner dose 0.4 µM) | 100%
COc1ccc(C2=N[C@@H](c3ccc(Cl)cc3)[C@@H](c3ccc(Cl)cc3)N2C(=O)N2CCNC(=O)C2)c(OC(C)C)c1 [Nutlin-3] + O=C(Oc1ccc([N+](=O)[O-])cc1)N1CCC(C(O)(c2ccc3c(c2)OCO3)c2ccc3c(c2)OCO3)CC1 [JZL184] (first compound 0.1 µM, partner dose 1 µM) | 86.3%
O=C(Oc1ccc([N+](=O)[O-])cc1)N1CCC(C(O)(c2ccc3c(c2)OCO3)c2ccc3c(c2)OCO3)CC1 + CCCCCCCCCCCC1=C(O)C(=O)C=C(O)C1=O [Embelin] (first compound 1 µM, partner dose 1.2 µM) | 90.7%
COc1ccc(C2=N[C@@H](c3ccc(Cl)cc3)[C@@H](c3ccc(Cl)cc3)N2C(=O)N2CCNC(=O)C2)c(OC(C)C)c1 [Nutlin-3] + C[C@]12O[C@H](C[C@]1(O)CO)n1c3ccccc3c3c4c(c5c6ccccc6n2c5c31)CNC4=O [Lestaurtinib] (first compound 0.1 µM, partner dose 0.004 µM) | 91.2%
Cc1cn(-c2cc(NC(=O)c3ccc(C)c(Nc4nccc(-c5cccnc5)n4)c3)cc(C(F)(F)F)c2)cn1 [nilotinib] + C[C@]12O[C@H](C[C@]1(O)CO)n1c3ccccc3c3c4c(c5c6ccccc6n2c5c31)CNC4=O [Lestaurtinib] (first compound 0.2 µM, partner dose 0.004 µM) | 98.8%
COc1cc2c(Oc3ccc4[nH]c(C)cc4c3F)ncnc2cc1OCCCN1CCCC1 [cediranib] + C/C(O)=C(\C#N)C(=O)Nc1cc(Br)ccc1Br [LFM-A13] (first compound 0.4 µM, partner dose 2 µM) | 117%
O=C(/C=C/c1cccnc1)NCCCCC1CCN(C(=O)c2ccccc2)CC1 + Cc1cc(SCc2sc(-c3ccc(C(F)(F)F)c(F)c3)nc2C)ccc1OCC(=O)O [GW0742] (first compound 0.01 µM, partner dose 2 µM) | 91.5%
Cn1c(=O)n(-c2ccc(C(C)(C)C#N)cc2)c2c3cc(-c4cnc5ccccc5c4)ccc3ncc21 + N.N.[Cl][Pt][Cl] [cisplatin] (first compound 0.004 µM, partner dose 1.6 µM) | 90.5%
Cc1cc(N2CCOCC2)cc2[nH]c(-c3c(NC[C@@H](O)c4cccc(Cl)c4)cc[nH]c3=O)nc12 + Cc1cc(SCc2sc(-c3ccc(C(F)(F)F)c(F)c3)nc2C)ccc1OCC(=O)O [GW0742] (first compound 0.2 µM, partner dose 2 µM) | 89.1%
CCCCCCCCc1ccc(CCC(N)(CO)CO)cc1 [fingolimod] + C[As](C)SC[C@H](NC(=O)CC[C@H](N)C(=O)O)C(=O)NCC(=O)O [Darinaparsin] (first compound 2 µM, partner dose 0.4 µM) | 52.9%
CNC(=O)c1cc(Oc2ccc(NC(=O)Nc3ccc(Cl)c(C(F)(F)F)c3)cc2)ccn1 [sorafenib] + Cc1cc(SCc2sc(-c3ccc(C(F)(F)F)c(F)c3)nc2C)ccc1OCC(=O)O [GW0742] (first compound 0.4 µM, partner dose 2 µM) | 109%
CS(=O)(=O)CCNCc1ccc(-c2ccc3ncnc(Nc4ccc(OCc5cccc(F)c5)c(Cl)c4)c3c2)o1 [lapatinib] + O=C(Oc1ccc([N+](=O)[O-])cc1)N1CCC(C(O)(c2ccc3c(c2)OCO3)c2ccc3c(c2)OCO3)CC1 [JZL184] (first compound 0.8 µM, partner dose 1 µM) | 86.1%
COc1ccc2c(c1)CCC1C2CCC2(C)C(NCCCCCCN3C(=O)C=CC3=O)CCC12 (stereo not given) + C/C(O)=C(\C#N)C(=O)Nc1cc(Br)ccc1Br [LFM-A13] (first compound 0.4 µM, partner dose 2 µM) | 86.6%

Source: the supplement of paper PMC4604168 (melanoma cell lines)
